The campaign covered roughly 310,000 compounds. About 11,000 (3.5%) were called active. Inconclusive results, whose numbers are uncertain, are shown with a selection of clear calls. Calls follow the shape of the dose curve; as a rule, active = well fitted inhibition curve with a large enough effect; inconclusive = small, poorly fitted or top-dose-only effect, or effect the other way; inactive = flat fitted curve, though single readings scatter. Potencies of inconclusive entries are left out as doubtful fits.
experiment: VP16 counterscreen qHTS for inhibitors of ROR gamma transcriptional activity; conditions: Drosophila S2 Gal4-VP16 UAS-luciferase, luminescence, 20 h; activity, negative = inhibition: at 53.6 µM (top of the series);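 also: Gal4-VP16 expression switched on by copper sulfate through the metallothionein promoter; nearly all actives have a fitted effect of over 50% in size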
% is scaled to controls: 0 for no effect and ±100 for the full control effect; potency is read from the fitted curve at half-maximal effect; tags tell the direction and shape of the fitted curve.

SMILES	Potency	activity, negative = inhibition
CCCCC(C(=O)OCC)C(N)Cc1ccc(F)cc1 (configuration not stated)	inactive	
Cc1ccc(-n2ncc3c(NNC(=O)c4ccco4)ncnc32)c(C)c1	inconclusive [inhibitor, single point]	
CSc1ccc(C(c2c(C(=O)O)[nH]c3ccccc23)c2c(C(=O)O)[nH]c3ccccc23)cc1	inactive	
O=S(=O)(NCC(O)c1ccccc1)c1cc(Cl)sc1Cl (configuration not stated)	inconclusive [inhibitor, single point]	
Cc1ccc(-c2nn(-c3ccccc3)cc2/C=N/NC(=O)CSc2nnc(C)n2-c2ccccc2)cc1	inconclusive [inhibitor, single point]	
COc1ccc(CN2CSC(=S)N(Cc3ccccc3)C2)cc1	active: 10 µM	
CCC1=NN(C(=O)Cc2ccc(OC)c(OC)c2)C(O)(C(F)(F)F)C1 (configuration not stated)	inconclusive [inhibitor, single point]	
Clc1ccc(-c2cn3c(n2)-c2ccccc2C3)cc1Cl	inconclusive [inhibitor, single point]	
COc1ccccc1-n1c(=O)oc2ccc(Cl)cc2c1=O	inconclusive [inhibitor, single point]	
Nc1c(C(=O)NC2CCCCC2)c2nc3ccccc3nc2n1/N=C/c1ccco1	inconclusive [inhibitor, partial curve]	
COc1ccc(C(C(=O)NC(C)(C)C)N(C(=O)CCC(=O)Nc2cc(C)on2)c2cccc(F)c2)cc1 (configuration not stated)	inconclusive [activator, single point]	
CCCC(=O)NC(=S)Nc1ccc(NC(=O)C(C)C)c(OC)c1	inconclusive [inhibitor, single point]	
CSc1nc(SCC(=O)NC(c2ccccc2)c2ccccc2)c2c3c(sc2n1)CN(C)CC3	inconclusive [inhibitor, single point]	
CC1CCCN(c2ncnc3c2cnn3-c2ccccc2)C1 (configuration not stated)	active: 5.01 µM	
CCOc1ccc(-c2onc(C(F)(F)F)c2-c2cscn2)c(O)c1	inconclusive [inhibitor, single point]	
OCCC1CN(CC2CCCCC2)CCN1CC1CCCCC1 (configuration not stated)	inactive	
Cc1ccc(-c2cn(-c3ccccc3)c(=S)[nH]2)cc1C	inconclusive [inhibitor, partial curve]	
CC(CCc1ccco1)NC(=O)Nc1cccc(F)c1 (configuration not stated)	inactive	
O=C(Nc1nnc(SCc2ccccc2Cl)s1)c1cccc([N+](=O)[O-])c1	inconclusive [inhibitor, single point]	
CN(C)C(CNC(=O)c1ccc2ccccc2c1)c1ccco1 (configuration not stated)	inconclusive [activator, single point]	
C/C=C/c1ccc(OCC(O)CN(C)Cc2ccc(SC)cc2)c(OC)c1 (configuration not stated)	inactive	
O=[N+]([O-])c1cnc(Nc2ccc(Cl)cn2)c([N+](=O)[O-])c1	inconclusive [inhibitor, single point]	
O=C(c1ccccc1)c1ccccc1N1C(=O)C=CC1=O	active: 7.08 µM	
COCC(C)n1c(C)cc(C(=O)COC(=O)CN=C2NS(=O)(=O)c3ccccc32)c1C (configuration not stated)	inactive	

SMILES	Potency	activity, negative = inhibition
Cc1ccn(-c2ccc([N+](=O)[O-])cc2)n1	inconclusive [activator, partial curve, poor fit]	
COc1cccc(C=Nc2cc(C)on2)c1O	inconclusive [inhibitor, single point]	
S=c1[nH]nc(-c2ccccn2)n1/N=C/c1ccc(Br)s1	active: 7.94 µM	
CC[C@H](C)[C@H](NC(=O)[C@H](CC(N)=O)NC(=O)[C@H](CCCCN)NC(=O)[C@H](Cc1ccccc1)NC(=O)[C@H](Cc1ccccc1)NC(=O)[C@H](Cc1cnc[nH]1)NC(=O)[C@@H](N)C(C)C)C(=O)N[C@H](C(=O)N[C@H](C(=O)N1CCC[C@H]1C(=O)N[C@@H](CCCN=C(N)N)C(=O)N[C@H](C(=O)N1CCC[C@H]1C(=O)O)[C@@H](C)O)[C@@H](C)O)C(C)C	inactive	
COC(=O)CC(c1ccc(OC)c(OC)c1)c1ccc(OC)c(OC)c1		inactive: -23.2% [at 10 µM]
c1ccc(-c2ccc(N3CC4(CCNCC4)C3)cc2)cc1	inconclusive [inhibitor, single point]	
C/C(=N\NC(N)=S)C1C2C3CC4C5CC(C42)C1C53 (configuration not stated)	inconclusive [inhibitor, single point]	
COc1ccc(/C=C2/C(=O)N(Cc3ccccc3)N=C2C)cc1	inconclusive [inhibitor, single point]	
COc1ccc(C/C(C)=N/NS(=O)(=O)c2ccc(Br)cc2)cc1	inconclusive [inhibitor, single point]	
COC(=O)c1c(C)[nH]c(C(=O)/C=C/c2cccc(Cl)c2)c1C	inconclusive [inhibitor, partial curve]	
Oc1ccc(Cl)cc1N=Cc1sc2ccccc2c1Cl	inactive	
c1ccc2oc(-c3[nH]ncc3CN3CCC(N4CCSCC4)CC3)cc2c1	inactive	
O=C(CCS(=O)(=O)Cc1ccccc1)Nc1ncc([N+](=O)[O-])s1	inconclusive [inhibitor, single point]	
O=C(Nc1ccc2[nH]ccc2c1)c1ccc(F)cc1	inconclusive [inhibitor, partial curve]	
C/C(=N\Nc1nc2c(s1)CCCC2)c1ccc(Cl)cc1	active: 11.2 µM	
CCCn1c(NC(=O)C23CC4CC(CC(O)(C4)C2)C3)nc2ccccc21	active: 5.62 µM	
COc1cc(OC)c(CN2CCN(c3ccc(F)cc3)CC2)cc1Br	inactive	
COCCCN1CN(Cc2ccccc2)CNC1=S	inconclusive [inhibitor, single point]	
O=C(c1ccc2c(c1)N(Cc1ccccc1)CCS2)N1CCCCC1	inconclusive [inhibitor, single point]	
Oc1ccc(N=Nc2ccc3c(c2)OCCO3)c2ncccc12	active: 0.398 µM	
FC(F)(F)c1nnc2c(Sc3ccccc3)nc3ccc(Cl)cc3n12	inactive	
NC(=O)c1cc(Br)cc2c3c([nH]c12)CCCC3	active: 17.8 µM	
Oc1cccc2ccc[n+](CC(O)Cn3c4ccccc4c4ccccc43)c12 (configuration not stated)	active: 22.4 µM	
COc1ccc2no[n+]([O-])c2c1	active: 7.08 µM	

SMILES	Potency	activity, negative = inhibition
CCCNC(=O)c1c(N)n(-c2ccc(S(N)(=O)=O)cc2)c2nc3ccccc3nc12	inconclusive [inhibitor, partial curve]	
COc1ccc(C(c2c(C)[nH]n(C(N)=S)c2=O)C(C#N)C#N)cc1 (configuration not stated)	active: 4.47 µM	
O=C(CN1CCN(S(=O)(=O)c2ccc(F)cc2)CC1)Nc1ccc(Cl)c(C(F)(F)F)c1	inconclusive [inhibitor, single point]	
Cc1c(O)nc(SC2CC(=O)N(c3ccccc3)C2=O)[nH]c1=O (configuration not stated)	inactive	
CSCc1ccc(C(=O)Nc2ccc(C(N)=O)cc2)cc1	inconclusive [inhibitor, partial curve]	
C=CCc1c(C)nc(SC)nc1Nc1ccccc1	inconclusive [inhibitor, partial curve, poor fit]	
C=C(C)Cn1c(-c2ccccc2)nc2ccccc21	inconclusive [inhibitor, single point]	
CC1C2CC(C/C2=N/NC(=O)c2cccs2)C1(C)C (configuration not stated)	active: 2 µM	
O=C(CCc1cn(Cc2ccc(F)cc2)c2ccccc12)N1CCOCC1	inconclusive [activator, single point]	
CC(C)N(Cc1nc(-c2ccccc2)no1)C(=O)c1ccc2c(c1)OCO2	inconclusive [inhibitor, single point]	
O=C1/C(=C/c2cccnc2)Oc2cc(OS(=O)(=O)c3ccc(F)cc3)ccc21	inactive	
N#CC(=C(/N)Sc1ccccc1N)/C(C#N)=C(/N)Sc1ccccc1N	inconclusive [inhibitor, single point]	
O=C1C(Cl)=C(N2CCN(c3ccccc3[N+](=O)[O-])CC2)C(=O)c2ccccc21	inconclusive [inhibitor, single point]	
Cc1cccc(CS(=O)(=O)c2ncc(Cl)c(C(=O)NCc3ccc4c(c3)OCO4)n2)c1	active: 3.16 µM	
COc1ccccc1C(=O)Nc1nc2ccccc2[nH]1	active: 0.501 µM	
COc1ccc2nc(NC(=O)CSc3nnc(C)s3)sc2c1	inconclusive [inhibitor, partial curve]	
CCc1ccc(S(=O)(=O)NCCc2csc(-c3ccccc3)n2)s1	inconclusive [inhibitor, single point]	
CC1CCCCN1C(=O)CN1CCC(c2nc3ccc(Cl)cc3[nH]2)CC1 (configuration not stated)	inactive	
Cc1cc(N2CCCCC2)nc2ccccc12	inconclusive [activator, single point]	
COc1c(Cl)ccc(Cl)c1C(=O)NC(=O)N1CCOCC1	inactive	
CCCN1CCN(C(=O)c2ccc(Sc3ccc(C)cc3)c(NC(C)=O)c2)CC1	inactive	
Cc1ccc(S(=O)(=O)N2CCN(CC(=O)N/N=C\C(Cl)=C\c3ccccc3)CC2)cc1	inconclusive [activator, single point]	
CCCCNC(=O)O/N=C(\N)CS(=O)(=O)C(C)(C)C	inactive	
COc1ccc(NC(=O)c2ccc(NC3CC(=O)N(c4ccc(C)cc4C)C3=O)cc2)cc1 (configuration not stated)	inconclusive [inhibitor, single point]	

From PubChem BioAssay AID2546 (National Center for Advancing Translational Sciences (NCATS), 2010)
